# Measurements taken from PMC4336329 (PLoS ONE, 2015).
# The campaign covered roughly 310,000 compounds. About 2,200 (0.71%) showed an effect of 50% or more. Effects have a minus sign here. The list shows a part of the results.
# Target: human ether-à-go-go-related gene (hERG) potassium channel (human, UniProt Q12809)
# Experiment: primary screen, population patch clamp on CHO cells stably expressing hERG
# Chain of human ether-à-go-go-related gene (hERG) potassium channel (Q12809 whole entry, looked up): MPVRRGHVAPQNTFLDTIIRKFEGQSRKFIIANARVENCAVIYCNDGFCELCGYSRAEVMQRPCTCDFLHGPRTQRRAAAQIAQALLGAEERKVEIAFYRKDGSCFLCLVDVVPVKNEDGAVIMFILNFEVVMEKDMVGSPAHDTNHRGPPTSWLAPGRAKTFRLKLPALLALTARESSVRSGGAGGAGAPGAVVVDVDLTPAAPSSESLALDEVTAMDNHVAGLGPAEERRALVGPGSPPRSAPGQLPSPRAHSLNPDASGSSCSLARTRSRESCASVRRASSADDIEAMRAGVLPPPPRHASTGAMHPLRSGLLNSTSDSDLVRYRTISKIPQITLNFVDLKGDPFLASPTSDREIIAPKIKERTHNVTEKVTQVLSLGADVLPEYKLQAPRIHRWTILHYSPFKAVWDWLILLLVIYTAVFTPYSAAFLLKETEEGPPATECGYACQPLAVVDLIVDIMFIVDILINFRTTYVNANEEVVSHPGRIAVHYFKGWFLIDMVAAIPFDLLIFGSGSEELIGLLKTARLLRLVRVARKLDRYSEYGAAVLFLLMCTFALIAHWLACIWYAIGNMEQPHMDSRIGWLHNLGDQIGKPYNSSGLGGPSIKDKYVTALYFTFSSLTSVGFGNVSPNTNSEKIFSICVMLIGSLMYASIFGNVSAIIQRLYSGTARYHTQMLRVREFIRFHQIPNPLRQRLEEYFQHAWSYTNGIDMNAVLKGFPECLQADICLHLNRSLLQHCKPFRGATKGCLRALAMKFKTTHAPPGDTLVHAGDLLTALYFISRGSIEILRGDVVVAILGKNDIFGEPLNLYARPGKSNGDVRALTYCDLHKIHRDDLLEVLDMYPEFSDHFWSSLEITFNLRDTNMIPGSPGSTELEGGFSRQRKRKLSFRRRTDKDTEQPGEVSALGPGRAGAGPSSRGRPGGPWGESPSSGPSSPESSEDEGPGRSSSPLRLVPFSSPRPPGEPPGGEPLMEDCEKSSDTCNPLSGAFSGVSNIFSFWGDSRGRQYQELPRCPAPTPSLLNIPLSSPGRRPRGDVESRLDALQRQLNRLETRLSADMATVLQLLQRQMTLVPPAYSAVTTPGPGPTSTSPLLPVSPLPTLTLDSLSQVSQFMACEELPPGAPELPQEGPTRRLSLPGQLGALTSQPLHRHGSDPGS
row,Structure (SMILES),"hERG current change (%, negative = inhibition) at 1uM"
1,COc1cccc(C2c3[nH]c4ccccc4c3CCN2C(=O)Cn2cncn2)c1OC (stereo not drawn),5.37%
2,CC(=O)NC1(NC(C)=O)CCN(C)CC1,8.58%
3,O=C(Nc1ccccc1C(=O)NCc1ccco1)Nc1cccc2ccccc12,6.88%
4,CCN(CC)CCNC(=O)C1c2ccccc2C(=O)N(C)C1c1cn(C)c2ccccc12 (stereo not drawn),6.3%
5,CC(C)(C)c1cc(C(=O)O)c(CN2CCCCC2)o1.Cl,-1.18%
6,O=C(COc1ncnc2ccccc12)Nc1cc([N+](=O)[O-])ccc1Cl,19.1%
7,COc1ccc(CN(CCc2ccccc2)Cc2ccccc2)cc1OC.O=C(O)C(=O)O,2.26%
8,COc1ccccc1-n1c(-c2ccccc2Br)nc2ccccc2c1=O,12.3%
9,Cc1ccccc1NC(=O)Cc1nnc(SCC(=O)NC2CCCCC2)n1C,12%
10,O=C(Nc1ccc(F)cc1F)c1cccc(C(=O)Nc2ccc(F)cc2F)n1,9.79%
11,CCn1cc(C2=NOC(C(=O)Nc3cc(C)nn3-c3ccccc3)C2)c(C)n1 (stereo not drawn),0.767%
12,Cc1ccc(NC(NC(=O)OCCn2c([N+](=O)[O-])cnc2C)C(Cl)(Cl)Cl)cc1 (stereo not drawn),9.01%
13,C=CC(=O)NCC1OCCc2ccccc21 (stereo not drawn),14.2%
14,O=C(O)c1ccc(/C=N/N2CCN(c3ccccc3)CC2)cc1,8.93%
15,O=C(Cn1nnc(-c2ccccc2)n1)NNC(=O)c1cccc([N+](=O)[O-])c1,12.4%
16,Cc1ccc(OCC(=O)c2cc(C)n(Cc3cccs3)c2C)c([N+](=O)[O-])n1,12.9%
17,Cc1cc(C)c(OCC(O)CN2CCN(C(=O)c3ccccc3)CC2)c(C)c1.O=C(O)C(=O)O (stereo not drawn),-11.8%
18,Cc1ccc(NC2=NC(c3ccc(O)cc3)n3c(nc(C)cc3=O)N2)cc1 (stereo not drawn),12.4%
19,Cc1ccc(-c2csc(NC(=O)C3=NN(c4ccccc4)C(=O)CC3)n2)cc1,5.88%
20,CCOCCc1nnc(NC(=O)C2CCN(C(=O)c3ccco3)CC2)s1,21.9%
21,O=C(NCCCSc1ccccc1)c1cc(Br)ccc1O,12.2%
22,O=C1NC[C@@H](Cc2ccc(O)cc2)N(CC2CCCCC2)C1=O,17.4%
23,COc1ccc(OC)c2sc(NC(=O)CCS(=O)(=O)c3ccccc3)nc12,16.8%
24,CCOC(=O)C1CCN(C(=O)c2cn(C)c(=O)c3cc(OC)c(OC)cc23)CC1,7.95%
